In the supplement of paper PMC8748497:
The list shows a part of the results.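 Rule for the calls: active = fold change of at least 2 over DMSO control; inactive = below 2-fold.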 Single values are uncertain, as repeats are few or missing.

tested on: HEK293 ARE/NRF2-luciferase reporter; experiment: ARE/NRF2 luciferase reporter activity, fold change over DMSO control; higher = stronger NRF2/ARE reporter activation; details: 10 µM; 24 h

How did the “ARE/NRF2 luciferase reporter activity” value turn out when `CC1Cc2ccccc2N1NC(=O)c1ccc(Cl)c(S(N)(=O)=O)c1` (configuration not stated) was run?
Its value is inactive: 0.985.

With `COc1ccc2[nH]cc(CCNC(C)=O)c2c1` as the compound, how does the “ARE/NRF2 luciferase reporter activity” value read?
The value was inactive: 1.3.

For `CCCCCC(=O)Cc1cc(O)cc(O)c1C(=O)Oc1cc(CC(=O)CCCCC)c(C(=O)O)c(OC)c1`, which “ARE/NRF2 luciferase reporter activity” value is on record?
The value was inactive: 1.35.

`C[C@]12CC[C@@H]3c4ccc(OC(=O)c5ccccc5)cc4CC[C@H]3[C@@H]1CC[C@@H]2O` was tested. Which “ARE/NRF2 luciferase reporter activity” value did it give?
The value was inactive: 1.04.

For `CC1(C)CCC2=C(O1)c1ccccc1C(=O)C2=O` [beta-LAPACHONE], which “ARE/NRF2 luciferase reporter activity” value is on record?
Its value is inactive: 0.155.

Which “ARE/NRF2 luciferase reporter activity” value does the source give for `C=CC1=C(C)/C(=C/c2[nH]c(Cc3[nH]c(/C=C4\NC(=O)C(C)=C4C=C)c(C)c3CCC(=O)O)c(CCC(=O)O)c2C)NC1=O` here?
The value was inactive: 0.99.

How did the “ARE/NRF2 luciferase reporter activity” value turn out when `COc1cccc2c1C(=O)c1c(O)c3c(c(O)c1C2=O)C[C@@](O)(C(=O)CO)C[C@@H]3O[C@H]1C[C@H](N)[C@H](O)[C@H](C)O1` was run?
The value was inactive: 0.0693.

`Cc1cn([C@H]2C=C[C@@H](CO)O2)c(=O)[nH]c1=O` was tested. Which “ARE/NRF2 luciferase reporter activity” value did it give?
The value was inactive: 0.656.

How did the “ARE/NRF2 luciferase reporter activity” value turn out when `CCCCCCOc1ccccc1C(N)=O` was run?
Its value is inactive: 1.71.

`CC(C)=CCc1c(O)cc2oc(C)cc(=O)c2c1O` was tested. Which “ARE/NRF2 luciferase reporter activity” value did it give?
The value was active: 2.2.

`C[N+]1(C)CCC(OC(=O)C(O)(c2ccccc2)C2CCCC2)C1` (configuration not stated) was tested. Which “ARE/NRF2 luciferase reporter activity” value did it give?
The value was inactive: 1.04.

How did the “ARE/NRF2 luciferase reporter activity” value turn out when `O=c1c(O)c(-c2ccc(O)cc2)oc2ccccc12` was run?
The value was active: 2.41.

Which “ARE/NRF2 luciferase reporter activity” value does the source give for `CC#CCn1c(N2CCC[C@@H](N)C2)nc2c1c(=O)n(Cc1nc(C)c3ccccc3n1)c(=O)n2C` here?
The value was inactive: 0.986.

For `Nc1ccc(S(=O)(=O)O)cc1.Nc1ccc(S(=O)(=O)O)cc1.[Zn]`, which “ARE/NRF2 luciferase reporter activity” value is on record?
The value was inactive: 0.964.

How did the “ARE/NRF2 luciferase reporter activity” value turn out when `CCCCCOC(=O)Nc1nc(=O)n([C@@H]2O[C@H](C)[C@@H](O)[C@H]2O)cc1F` was run?
Its value is inactive: 0.785.

For `c1ccc(C2CN3CCSC3=N2)cc1` (configuration not stated), which “ARE/NRF2 luciferase reporter activity” value is on record?
The value was inactive: 0.878.

With `CCCCCCCCCCCCCCCC(=O)OC[C@@H](NC(=O)C(Cl)Cl)[C@H](O)c1ccc([N+](=O)[O-])cc1` as the compound, how does the “ARE/NRF2 luciferase reporter activity” value read?
Its value is inactive: 0.935.
